From the supplement of paper PMC12217912
Some of the results follow. Sequences were assembled here from the parent chain. Values near 0.05 are background.

B1: TEV protease; numbered along this chain (parent)
chain: MGESLFKGPRDYNPISSSICHLTNESDGHTTSLYGIGFGPFIITNKHLFRRNNGTLVVQSLHGVFKVKDTTTLQQHLVDGRDMIIIRMPKDFPPFPQKLKFREPQREERICLVTTNFQTKSMSSMVSDTSCTFPSGDGIFWKHWIQTKDGQCGSPLVSTRDGFIVGIHSASNFTNTNNYFTSVPKNFMELLTNQEAQQWVSGWRLNADSVLWGGHKVFMVKPEEPFQPVKEATQL

Variants of: B1
Experiment: raw area under fraction-flipped curve 0-4 h after induction (AUC4h, not background-subtracted), DNA-recorder readout of cleavage of the substrate (dimensionless); higher = more cleavage of the substrate by the protease variant
Conditions: temperature: 34 °C; time window: 0-4 h after rhamnose induction
Experimental: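 In vivo DNA recorder in E. coli TOP10(DE3) ΔrhaA at 34 °C. Each TEVp single-site mutant (parent TEVp 0) is paired with a single-site variant of the 7-mer TEVs (canonical ENLYFQ|S). The substrate sits between flexible linkers in a Bxb1-sfGFP-TEVs-SsrA fusion, so cleavage stabilises Bxb1 and speeds flipping of a recombination array, read by NGS. The value is the raw area under the fraction-flipped curve over 0-4 h after rhamnose induction (AUC4h), with ≥20 reads per time point. It is not background-subtracted; inactive controls average about 0.047.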
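Further: Bxb1 expression induced with 0.2% (w/v) L-rhamnose at OD600 near 0.5, cultures sampled hourly, flipped fraction per protease–substrate barcode pair counted by paired-end Illumina sequencing.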

Row | Variant | area with substrate ENLYFAS | area with substrate ENLYFCS | area with substrate ENLYFES | area with substrate ENLYFFS | area with substrate ENLYFHS | area with substrate ENLYFIS | area with substrate ENLYFKS | area with substrate ENLYFMS | area with substrate ENLYFNS | area with substrate ENLYFPS | area with substrate ENLYFRS | area with substrate ENLYFSS | area with substrate ENLYFTS | area with substrate ENLYFWS | area with substrate ENLYFDS | area with substrate ENLYFGS | area with substrate ENLYFLS | area with substrate ENLYFYS | area with substrate ENLYFVS
1 | N206F | 0.0622 | 0.0604 | 0.0635 | 0.0807 | 0.0428 | 0.052 | 0.0534 | 0.0602 | 0.0361 | 0.0657 | 0.0661 | 0.0243 | 0.0511 | 0.0567 |  |  |  |  | 
2 | N24A | 0.0455 |  | 0.0611 | 0.074 |  | 0.0631 |  | 0.0706 | 0.0654 | 0.0596 | 0.061 |  |  | 0.0684 | 0.0565 | 0.0602 |  |  | 
3 | N24P | 0.0565 | 0.05 | 0.0554 | 0.0622 | 0.0698 | 0.0535 | 0.0556 | 0.052 | 0.0484 | 0.0582 | 0.059 | 0.0517 | 0.0482 |  | 0.0513 | 0.0653 | 0.051 | 0.059 | 
4 | F187P | 0.0576 |  | 0.0536 | 0.0606 | 0.0465 | 0.0414 | 0.0477 | 0.0469 | 0.0366 | 0.0525 |  |  | 0.051 | 0.065 | 0.0614 | 0.0384 | 0.0451 | 0.0281 | 0.051
5 | G136V | 0.0605 | 0.0808 | 0.0704 | 0.0717 |  | 0.054 | 0.0598 | 0.0825 | 0.0732 | 0.0674 | 0.0525 |  | 0.0481 |  | 0.0533 |  |  |  | 
6 | G136K | 0.0711 | 0.0706 | 0.0677 | 0.0615 |  | 0.0458 | 0.0513 | 0.0665 | 0.0727 | 0.07 | 0.0626 | 0.0595 |  | 0.0561 |  |  | 0.0604 |  | 0.0617
7 | I85L | 0.0503 |  |  |  | 0.0682 | 0.0607 | 0.0522 | 0.0682 | 0.0737 | 0.0559 | 0.0519 |  |  | 0.0446 |  |  | 0.0633 | 0.0858 | 
8 | E108Q | 0.0476 | 0.0307 | 0.0581 | 0.0712 |  | 0.0602 |  |  | 0.0473 | 0.0506 | 0.0567 | 0.0502 | 0.0504 |  | 0.0523 | 0.0652 |  |  | 0.0479
9 | S209P | 0.0624 | 0.0548 | 0.0597 | 0.0608 |  | 0.0481 | 0.0619 | 0.0587 | 0.0516 | 0.0485 | 0.0384 |  |  | 0.0599 |  | 0.0236 | 0.0481 | 0.0534 | 0.0564
10 | T119F | 0.0511 | 0.0644 |  |  |  | 0.0621 |  | 0.0633 | 0.0727 | 0.0665 |  | 0.0562 |  |  | 0.0514 |  |  |  | 
11 | V183K | 0.0442 |  | 0.0482 | 0.0564 |  | 0.0553 |  | 0.0561 | 0.0762 | 0.0511 | 0.0556 | 0.0523 | 0.0653 | 0.0517 |  | 0.0545 | 0.0605 | 0.0682 | 0.0423
12 | F101N | 0.0457 |  | 0.0436 |  | 0.0509 | 0.0571 | 0.0829 | 0.0494 | 0.0365 | 0.0541 |  | 0.0485 | 0.0438 |  | 0.042 |  | 0.051 |  | 0.0388
13 | K120N | 0.0575 | 0.0626 | 0.0665 | 0.0914 |  | 0.0661 | 0.0715 |  | 0.0593 |  | 0.0553 |  | 0.0474 | 0.0584 |  | 0.071 |  |  | 
14 | S124K | 0.0628 | 0.0627 | 0.0624 | 0.0546 |  | 0.056 | 0.0524 | 0.0637 | 0.0609 | 0.0591 |  |  | 0.0567 | 0.0641 | 0.0468 | 0.0498 | 0.0629 | 0.0511 | 0.0531
15 | R160Q | 0.0592 |  | 0.0789 | 0.0642 | 0.0535 |  |  | 0.0579 | 0.061 | 0.0616 | 0.0643 |  | 0.0517 | 0.0582 | 0.0909 |  |  |  | 0.0579
16 | R160E | 0.0302 | 0.0542 | 0.0663 |  | 0.0664 | 0.0601 | 0.0584 | 0.0742 | 0.0579 | 0.0631 | 0.0599 | 0.0734 | 0.0593 | 0.0689 | 0.0442 | 0.0698 | 0.0959 | 0.0647 | 0.0362
17 | I86N | 0.0342 |  |  | 0.0437 |  | 0.0494 |  |  | 0.0495 | 0.0469 |  |  |  | 0.0402 |  |  |  |  | 
18 | T176E | 0.0635 |  | 0.0594 | 0.0703 |  | 0.0571 |  | 0.0564 |  | 0.0638 | 0.0667 |  | 0.0628 | 0.062 |  | 0.0596 | 0.0706 | 0.0585 | 0.0567
19 | H21T | 0.0578 | 0.0572 | 0.06 | 0.0541 | 0.0489 | 0.0617 | 0.0607 | 0.0693 | 0.0574 | 0.0619 | 0.0532 | 0.0697 | 0.0612 | 0.059 | 0.0516 | 0.0906 | 0.0661 | 0.0482 | 0.0548
20 | L48D | 0.0557 | 0.0674 | 0.0744 | 0.0684 | 0.0462 | 0.0537 | 0.0634 | 0.0789 | 0.0685 | 0.0599 | 0.0614 | 0.0603 | 0.0622 | 0.0549 | 0.0606 |  | 0.0583 | 0.0827 | 0.0574
21 | V210Y | 0.0679 | 0.0569 | 0.0603 | 0.0701 | 0.0827 | 0.0616 | 0.0345 | 0.0703 | 0.0646 | 0.0496 | 0.0639 | 0.0433 | 0.0709 | 0.0577 | 0.0605 |  | 0.0494 |  | 
22 | G80W | 0.0454 | 0.0659 | 0.0608 | 0.0668 | 0.0581 | 0.0524 | 0.0523 | 0.0653 | 0.0675 | 0.06 | 0.059 | 0.0546 | 0.0545 | 0.0699 | 0.0246 | 0.0613 |  | 0.043 | 0.0486
23 | G80A | 0.0625 |  | 0.0601 | 0.0431 |  | 0.0587 | 0.076 | 0.0685 | 0.0608 | 0.0587 |  |  | 0.0629 | 0.0735 |  |  | 0.0767 | 0.0571 | 
24 | M88F | 0.0563 |  |  | 0.0589 | 0.0506 | 0.059 |  | 0.0589 |  |  | 0.0608 | 0.043 | 0.0471 |  | 0.0522 | 0.048 |  | 0.0562 | 
25 | V220Q | 0.0529 | 0.0596 | 0.0663 | 0.0642 | 0.0458 | 0.0555 | 0.062 | 0.0743 | 0.0646 | 0.059 |  | 0.0615 | 0.0583 | 0.0571 |  | 0.0638 |  |  | 0.0576
